{
  "source": "the supplement of paper PMC11125491",
  "parents": {"B1": {"name": "UniProt A0EPZ9; numbered along this chain (parent)", "chain": "MDWQKSLTLIVALTLSRGIGLKNDLPWKLKSDMMFFSRVTSGLLVTRSTGQMNVVLMGRKTWESLPAHSRPLKNRINVVISRQEVLDLGGGAYHARSLDDALALLSQIYDSTSKIQLNRVFVIGGGELCKAAMEHSRLNRIIATVIHNEVDCDVFFPIDFRSSQSCLPWRKQDHSVLEAWVGSKVPQGKINENGFIYEFEMWIRDI"}},
  "variants_of": "B1",
  "test": "selection coefficient against synonymous wild-type codons (log2 per generation); higher = faster growth than wild type",
  "details": "with Saccharomyces cerevisiae carrying the variant on a plasmid",
  "procedure": "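Pooled growth of yeast carrying single-residue variants of P. jirovecii dihydrofolate reductase (own DFR1 gene intact), two passages at 30 °C, three cultures, sequenced before and after. Codons with under 15 starting reads are left out; codons of one change are averaged.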",
  "note": "± gives the standard deviation of the averaged measurements. Growth of baker's yeast expressing single-residue variants of Pneumocystis jirovecii dihydrofolate reductase in 8.8 or 44 µM methotrexate (about 75% and 90% inhibition of the wild type). Selection coefficient per generation; 0 = like wild type, above 0 = less sensitive, below 0 = more sensitive or loss of function. No active / inactive call per row; the paper calls resistant above 0.220 (8.8 µM) or 0.243 (44 µM) together with a significance test. At 44 µM about 15% of codons end with one read or none, so the lowest values are floors (replicate rank correlation 0.74; 0.94 at 8.8 µM).",
  "data": [
    {"variant": "MDWQKSLTLIVALTLSRGIGLKNDLPWKLKSDMMFFSRVTSGLLVTRSTGQMNVVLMGRKTWESLPAHSRPLKNRINVVISRQEVLDLGGGAYHARSLDDALALLSQIYDSTSKIQLNRVFVIGGGELCKAAMEHSRLNRIIATVIHNEVDCDVFFPIDFRSSQSCLPWRKQDHSVREAWVGSKVPQGKINENGFIYEFEMWIRDI", "note": "[L177R]", "values": [
      {"measurement": "selection coefficient against synonymous wild-type codons (log2)", "setting": "methotrexate 8.8 µM", "result": "-0.707 ± 0.16"},
      {"measurement": "selection coefficient against synonymous wild-type codons (log2)", "setting": "methotrexate 44 µM", "result": "-0.34 ± 0.068"}
    ]},
    {"variant": "MDWQKSLTLIVALTLSRGIGLKNDLPWKLKSDMMFFSRVTSGLLVTRSTGQMNVVLMGRKTWESLPAHSRPLKNRINVVISRQEVLDLGGGAYHARSLDDALALLSQIYDSTSKIQLNRVFVIGGGELCKAAMEHSRLNRIIATVIHNEVDCDVFFPIDFRSSQSCLPWRKQDHSVSEAWVGSKVPQGKINENGFIYEFEMWIRDI", "note": "[L177S]", "values": [
      {"measurement": "selection coefficient against synonymous wild-type codons (log2)", "setting": "methotrexate 8.8 µM", "result": "-0.0186 ± 0.042"},
      {"measurement": "selection coefficient against synonymous wild-type codons (log2)", "setting": "methotrexate 44 µM", "result": "-0.0168 ± 0.061"}
    ]},
    {"variant": "MDWQKSLTLIVALTLSRGIGLKNDLPWKLKSDMMFFSRVTSGLLVTRSTGQMNVVLMGRKTWESLPAHSRPLKNRINVVISRQEVLDLGGGAYHARSLDDALALLSQIYDSTSKIQLNRVFVIGGGELCKAAMEHSRLNRIIATVIHNEVDCDVFFPIDFRSSQSCLPWRKQDHSVTEAWVGSKVPQGKINENGFIYEFEMWIRDI", "note": "[L177T]", "values": [
      {"measurement": "selection coefficient against synonymous wild-type codons (log2)", "setting": "methotrexate 8.8 µM", "result": "0.0185 ± 0.05"},
      {"measurement": "selection coefficient against synonymous wild-type codons (log2)", "setting": "methotrexate 44 µM", "result": "-0.0877 ± 0.087"}
    ]},
    {"variant": "MDWQKSLTLIVALTLSRGIGLKNDLPWKLKSDMMFFSRVTSGLLVTRSTGQMNVVLMGRKTWESLPAHSRPLKNRINVVISRQEVLDLGGGAYHARSLDDALALLSQIYDSTSKIQLNRVFVIGGGELCKAAMEHSRLNRIIATVIHNEVDCDVFFPIDFRSSQSCLPWRKQDHSVVEAWVGSKVPQGKINENGFIYEFEMWIRDI", "note": "[L177V]", "values": [
      {"measurement": "selection coefficient against synonymous wild-type codons (log2)", "setting": "methotrexate 8.8 µM", "result": "0.112 ± 0.038"},
      {"measurement": "selection coefficient against synonymous wild-type codons (log2)", "setting": "methotrexate 44 µM", "result": "-0.0201 ± 0.12"}
    ]},
    {"variant": "MDWQKSLTLIVALTLSRGIGLKNDLPWKLKSDMMFFSRVTSGLLVTRSTGQMNVVLMGRKTWESLPAHSRPLKNRINVVISRQEVLDLGGGAYHARSLDDALALLSQIYDSTSKIQLNRVFVIGGGELCKAAMEHSRLNRIIATVIHNEVDCDVFFPIDFRSSQSCLPWRKQDHSVWEAWVGSKVPQGKINENGFIYEFEMWIRDI", "note": "[L177W]", "values": [
      {"measurement": "selection coefficient against synonymous wild-type codons (log2)", "setting": "methotrexate 8.8 µM", "result": "-0.338 ± 0.088"},
      {"measurement": "selection coefficient against synonymous wild-type codons (log2)", "setting": "methotrexate 44 µM", "result": "-0.324 ± 0.15"}
    ]},
    {"variant": "MDWQKSLTLIVALTLSRGIGLKNDLPWKLKSDMMFFSRVTSGLLVTRSTGQMNVVLMGRKTWESLPAHSRPLKNRINVVISRQEVLDLGGGAYHARSLDDALALLSQIYDSTSKIQLNRVFVIGGGELCKAAMEHSRLNRIIATVIHNEVDCDVFFPIDFRSSQSCLPWRKQDHSVYEAWVGSKVPQGKINENGFIYEFEMWIRDI", "note": "[L177Y]", "values": [
      {"measurement": "selection coefficient against synonymous wild-type codons (log2)", "setting": "methotrexate 8.8 µM", "result": "0.0153 ± 0.035"},
      {"measurement": "selection coefficient against synonymous wild-type codons (log2)", "setting": "methotrexate 44 µM", "result": "0.0395 ± 0.023"}
    ]},
    {"variant": "MDWQKSLTLIVALTLSRGIGLKNDLPWKLKSDMMFFSRVTSGLLVTRSTGQMNVVLMGRKTWESLPAHSRPLKNRINVVISRQEVLDLGGGAYHARSLDDALALLSQIYDSTSKIQLNRVFVIGGGELCKAAMEHSRLNRIIATVIHNEVDCDVFFPIDFRSSQSCLPWRKQDHSVLAAWVGSKVPQGKINENGFIYEFEMWIRDI", "note": "[E178A]", "values": [
      {"measurement": "selection coefficient against synonymous wild-type codons (log2)", "setting": "methotrexate 8.8 µM", "result": "-0.118 ± 0.094"},
      {"measurement": "selection coefficient against synonymous wild-type codons (log2)", "setting": "methotrexate 44 µM", "result": "-0.208 ± 0.096"}
    ]},
    {"variant": "MDWQKSLTLIVALTLSRGIGLKNDLPWKLKSDMMFFSRVTSGLLVTRSTGQMNVVLMGRKTWESLPAHSRPLKNRINVVISRQEVLDLGGGAYHARSLDDALALLSQIYDSTSKIQLNRVFVIGGGELCKAAMEHSRLNRIIATVIHNEVDCDVFFPIDFRSSQSCLPWRKQDHSVLCAWVGSKVPQGKINENGFIYEFEMWIRDI", "note": "[E178C]", "values": [
      {"measurement": "selection coefficient against synonymous wild-type codons (log2)", "setting": "methotrexate 8.8 µM", "result": "-0.281 ± 0.019"},
      {"measurement": "selection coefficient against synonymous wild-type codons (log2)", "setting": "methotrexate 44 µM", "result": "-0.264 ± 0.081"}
    ]},
    {"variant": "MDWQKSLTLIVALTLSRGIGLKNDLPWKLKSDMMFFSRVTSGLLVTRSTGQMNVVLMGRKTWESLPAHSRPLKNRINVVISRQEVLDLGGGAYHARSLDDALALLSQIYDSTSKIQLNRVFVIGGGELCKAAMEHSRLNRIIATVIHNEVDCDVFFPIDFRSSQSCLPWRKQDHSVLDAWVGSKVPQGKINENGFIYEFEMWIRDI", "note": "[E178D]", "values": [
      {"measurement": "selection coefficient against synonymous wild-type codons (log2)", "setting": "methotrexate 8.8 µM", "result": "-0.0545 ± 0.049"},
      {"measurement": "selection coefficient against synonymous wild-type codons (log2)", "setting": "methotrexate 44 µM", "result": "-0.0427 ± 0.03"}
    ]},
    {"variant": "MDWQKSLTLIVALTLSRGIGLKNDLPWKLKSDMMFFSRVTSGLLVTRSTGQMNVVLMGRKTWESLPAHSRPLKNRINVVISRQEVLDLGGGAYHARSLDDALALLSQIYDSTSKIQLNRVFVIGGGELCKAAMEHSRLNRIIATVIHNEVDCDVFFPIDFRSSQSCLPWRKQDHSVLFAWVGSKVPQGKINENGFIYEFEMWIRDI", "note": "[E178F]", "values": [
      {"measurement": "selection coefficient against synonymous wild-type codons (log2)", "setting": "methotrexate 8.8 µM", "result": "-0.637 ± 0.15"},
      {"measurement": "selection coefficient against synonymous wild-type codons (log2)", "setting": "methotrexate 44 µM", "result": "-0.375 ± 0.066"}
    ]},
    {"variant": "MDWQKSLTLIVALTLSRGIGLKNDLPWKLKSDMMFFSRVTSGLLVTRSTGQMNVVLMGRKTWESLPAHSRPLKNRINVVISRQEVLDLGGGAYHARSLDDALALLSQIYDSTSKIQLNRVFVIGGGELCKAAMEHSRLNRIIATVIHNEVDCDVFFPIDFRSSQSCLPWRKQDHSVLGAWVGSKVPQGKINENGFIYEFEMWIRDI", "note": "[E178G]", "values": [
      {"measurement": "selection coefficient against synonymous wild-type codons (log2)", "setting": "methotrexate 8.8 µM", "result": "-0.199 ± 0.064"},
      {"measurement": "selection coefficient against synonymous wild-type codons (log2)", "setting": "methotrexate 44 µM", "result": "-0.324 ± 0.095"}
    ]},
    {"variant": "MDWQKSLTLIVALTLSRGIGLKNDLPWKLKSDMMFFSRVTSGLLVTRSTGQMNVVLMGRKTWESLPAHSRPLKNRINVVISRQEVLDLGGGAYHARSLDDALALLSQIYDSTSKIQLNRVFVIGGGELCKAAMEHSRLNRIIATVIHNEVDCDVFFPIDFRSSQSCLPWRKQDHSVLHAWVGSKVPQGKINENGFIYEFEMWIRDI", "note": "[E178H]", "values": [
      {"measurement": "selection coefficient against synonymous wild-type codons (log2)", "setting": "methotrexate 8.8 µM", "result": "-0.24 ± 0.034"},
      {"measurement": "selection coefficient against synonymous wild-type codons (log2)", "setting": "methotrexate 44 µM", "result": "-0.259 ± 0.12"}
    ]},
    {"variant": "MDWQKSLTLIVALTLSRGIGLKNDLPWKLKSDMMFFSRVTSGLLVTRSTGQMNVVLMGRKTWESLPAHSRPLKNRINVVISRQEVLDLGGGAYHARSLDDALALLSQIYDSTSKIQLNRVFVIGGGELCKAAMEHSRLNRIIATVIHNEVDCDVFFPIDFRSSQSCLPWRKQDHSVLIAWVGSKVPQGKINENGFIYEFEMWIRDI", "note": "[E178I]", "values": [
      {"measurement": "selection coefficient against synonymous wild-type codons (log2)", "setting": "methotrexate 8.8 µM", "result": "-0.44 ± 0.12"},
      {"measurement": "selection coefficient against synonymous wild-type codons (log2)", "setting": "methotrexate 44 µM", "result": "-0.383 ± 0.032"}
    ]},
    {"variant": "MDWQKSLTLIVALTLSRGIGLKNDLPWKLKSDMMFFSRVTSGLLVTRSTGQMNVVLMGRKTWESLPAHSRPLKNRINVVISRQEVLDLGGGAYHARSLDDALALLSQIYDSTSKIQLNRVFVIGGGELCKAAMEHSRLNRIIATVIHNEVDCDVFFPIDFRSSQSCLPWRKQDHSVLKAWVGSKVPQGKINENGFIYEFEMWIRDI", "note": "[E178K]", "values": [
      {"measurement": "selection coefficient against synonymous wild-type codons (log2)", "setting": "methotrexate 8.8 µM", "result": "-0.128 ± 0.06"},
      {"measurement": "selection coefficient against synonymous wild-type codons (log2)", "setting": "methotrexate 44 µM", "result": "-0.209 ± 0.078"}
    ]},
    {"variant": "MDWQKSLTLIVALTLSRGIGLKNDLPWKLKSDMMFFSRVTSGLLVTRSTGQMNVVLMGRKTWESLPAHSRPLKNRINVVISRQEVLDLGGGAYHARSLDDALALLSQIYDSTSKIQLNRVFVIGGGELCKAAMEHSRLNRIIATVIHNEVDCDVFFPIDFRSSQSCLPWRKQDHSVLLAWVGSKVPQGKINENGFIYEFEMWIRDI", "note": "[E178L]", "values": [
      {"measurement": "selection coefficient against synonymous wild-type codons (log2)", "setting": "methotrexate 8.8 µM", "result": "-0.433 ± 0.054"},
      {"measurement": "selection coefficient against synonymous wild-type codons (log2)", "setting": "methotrexate 44 µM", "result": "-0.414 ± 0.1"}
    ]}
  ]
}
